Article PMC4336329 (PLoS ONE, 2015)
About 14,000 (4.5%) of roughly 310,000 compounds showed an effect of 50% or more. Effects have a minus sign here. The list shows a part of the results.

target: human ether-à-go-go-related gene (hERG) potassium channel (human, UniProt Q12809); assay: primary screen, population patch clamp on CHO cells stably expressing hERG
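Also: peak tail current of the secondary pulse compared with the same well before compound.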

Sequence of human ether-à-go-go-related gene (hERG) potassium channel (Q12809 whole entry, looked up): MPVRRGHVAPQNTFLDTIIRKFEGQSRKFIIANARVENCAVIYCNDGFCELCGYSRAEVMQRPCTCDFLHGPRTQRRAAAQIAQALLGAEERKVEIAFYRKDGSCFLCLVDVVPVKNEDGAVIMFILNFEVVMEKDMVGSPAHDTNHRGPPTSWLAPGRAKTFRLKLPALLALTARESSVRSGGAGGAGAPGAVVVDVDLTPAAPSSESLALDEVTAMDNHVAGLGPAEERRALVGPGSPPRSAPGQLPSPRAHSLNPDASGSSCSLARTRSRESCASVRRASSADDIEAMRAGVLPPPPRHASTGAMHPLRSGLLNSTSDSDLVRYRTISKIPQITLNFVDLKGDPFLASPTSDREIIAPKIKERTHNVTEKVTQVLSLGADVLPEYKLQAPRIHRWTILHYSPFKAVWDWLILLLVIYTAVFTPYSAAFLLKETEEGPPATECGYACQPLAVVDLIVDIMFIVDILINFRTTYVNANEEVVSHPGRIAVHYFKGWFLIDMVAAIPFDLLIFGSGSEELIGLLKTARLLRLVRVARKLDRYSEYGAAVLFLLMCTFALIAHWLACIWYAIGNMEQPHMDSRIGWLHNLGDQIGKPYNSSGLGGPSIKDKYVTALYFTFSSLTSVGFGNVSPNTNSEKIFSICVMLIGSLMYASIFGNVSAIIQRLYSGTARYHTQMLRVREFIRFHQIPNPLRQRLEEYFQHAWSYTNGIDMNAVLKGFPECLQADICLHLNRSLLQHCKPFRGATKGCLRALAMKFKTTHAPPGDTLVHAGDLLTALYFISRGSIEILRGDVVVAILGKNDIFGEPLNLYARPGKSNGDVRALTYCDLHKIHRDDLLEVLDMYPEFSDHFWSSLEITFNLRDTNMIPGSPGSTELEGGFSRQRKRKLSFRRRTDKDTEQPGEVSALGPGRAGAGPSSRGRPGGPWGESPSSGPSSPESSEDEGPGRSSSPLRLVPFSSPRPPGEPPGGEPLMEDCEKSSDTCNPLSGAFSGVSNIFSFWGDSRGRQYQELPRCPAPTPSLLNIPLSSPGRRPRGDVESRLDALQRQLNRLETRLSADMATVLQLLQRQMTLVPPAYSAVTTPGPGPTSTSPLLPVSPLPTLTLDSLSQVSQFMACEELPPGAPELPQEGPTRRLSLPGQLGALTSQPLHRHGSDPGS

Point of comparison: CCOC(=O)C1CCN(C(=O)CNS(=O)(=O)c2ccc(Br)s2)CC1, “hERG current change (%, negative = inhibition) at 10uM” value -28.2%. Against it:
- COc1ccc(C(=O)C2CCCN(C(=O)c3noc4c3CCCC4)C2)cc1F (centres unmarked) — lower, -39.9%
- CNC(=O)C1C2C=CC3(O2)C1C(=O)N(CCOC)C3C(=O)NCc1ccc(OC)cc1 (centres unmarked) — higher, 19.1%
- Cc1cccc(-n2c(C)n[nH]c2=S)c1C — higher, 17.4%
- Cc1ccc(-c2nnn(CC(=O)N(CC(=O)NC3CCCC3)c3ccc(F)c(Cl)c3)n2)o1 — higher, 2.35%
- COc1ccc(CN2CCCC(C(=O)N3CCCCC3)C2)cc1OC.O=C(O)C(=O)O (centres unmarked) — higher, -25.5%
- COc1ccc(S(=O)(=O)NCCC(=O)NCc2ccc(F)cc2)cc1 — higher, -26.3%
- COC(=O)CCCc1nc2ccccc2s1 — higher, 8.7%
- CCCCn1nc(C(=O)N(CCOC)c2c(N)n(CCCC)c(=O)[nH]c2=O)c2ccccc2c1=O — higher, 6.16%
- Cl.Nc1ncnc2sc3c(c12)CCNC3 — higher, 25.4%
- CCN(Cc1ccccc1)S(=O)(=O)c1ccc(C(=O)N(CCCN(C)C)c2nc3cc(OC)ccc3s2)cc1.Cl — lower, -58.3%
- O=C(Nc1ccc(Br)cc1)c1cnccn1 — higher, -2.9%
- O=C(c1cccs1)N(Cc1ccccn1)Cc1ccco1 — higher, -9.53%
- COC(=O)c1[nH]c2ccccc2c1NC(=O)c1ccccc1F — higher, 8.73%
- O=C(CSC(=S)N1CCOCC1)Nc1ncc2c(n1)CCCC2=O — higher, -7.16%
- NC(=O)COC(=O)c1ccc(-c2ccccc2)cc1 — higher, 14.2%
- C=CCn1c(SCC(=O)Nc2ccc3c(c2)OCCO3)nc2cc(C(=O)O)ccc2c1=O — higher, -1.2%
- Cc1ccc2oc(=O)cc(CN3CCN(C/C=C/c4ccccc4)CC3)c2c1 — lower, -76.9%
- Nn1c(-c2ccccc2Cl)nnc1-c1ccccc1Cl — higher, 5.15%
- O=C(CCC(=O)N1CCOc2ccccc21)Nc1ccccc1Cl — higher, 1.25%
- CCOC(=O)c1c(C)n(C)c2ccc(OC)c(NC(=O)CCN3CCSCC3)c12 — higher, -8.68%
- COc1ccc(-n2c(C)cc(/C=C3\C(=N)N4N=C(CC(=O)N5CCOCC5)SC4=NC3=O)c2C)c(OC)c1 — higher, 12.6%
- O=S(=O)(Nc1cccc(-n2cnnn2)c1)c1ccccc1 — higher, 20.6%
- O=C(CCNc1ccc(F)cc1)c1cccc([N+](=O)[O-])c1 — higher, -10.3%
- COc1ccccc1CC(=O)O/N=C(\N)Cc1cccc2ccccc12 — higher, 11.3%
- CCCN1CCN(C(=O)c2cccc3c2C(=O)N(CCOC)C3)CC1 — higher, 13%
- CC(C)c1ccc(S(=O)(=O)N(C)C2(C)CCS(=O)(=O)C2)cc1 (centres unmarked) — lower, -46.9%
- C=CCNC(=S)NNC(=O)c1ccc(OCCCC)cc1 — higher, 10.2%
- COc1ccc(OC)c(NC(=O)Cn2c(CCC(=O)O)ccc2-c2ccc(C)cc2)c1 — higher, -7.22%
- CC(Sc1nnc(-c2cccnc2)n1C)C(=O)N1CCOCC1 (centres unmarked) — higher, -1.32%
- COC(=O)C1=C(C)N=C2SC(C#N)=C(N)N2C1c1cc(OC)c(OC)c(OC)c1 (centres unmarked) — higher, -11.9%
- N#CCCN1CCN(CCC#N)CC1 — higher, 0.67%
- Cc1nc2ccc(NC(=O)CSc3nnc(C)s3)cc2[nH]1 — higher, 4.4%
- CC(C)(C)OC(=O)N1CCC(CNC(=O)c2ccc(F)cc2F)CC1 — higher, -4.87%
- O=C(COC(=O)c1cccc([N+](=O)[O-])c1)Nc1ccc(Cl)cn1 — higher, 9.2%
- CCO[C@@H]1OC(C(N)=O)=C[C@H](C2CCCCC2)[C@H]1CCCO — higher, -2.51%
- CC(C)C[C@@H](C(=O)NCc1ccco1)N1C(=O)N2CCc3c([nH]c4ccccc34)[C@@]2(C)C1=O — higher, -16.1%
- COc1cc(OC)cc(C(=O)N[C@H](C(=O)Nc2nc(-c3ccc(OC)c(OC)c3)cs2)C(C)C)c1 — higher, -6.07%
- CCOC(=O)c1cc(Br)c(=O)n2ccccc12 — higher, -9.01%
- O=C(CN1CCCC1)Nc1ccc(OCc2ccccc2)cc1 — lower, -54.1%
- Cc1ccc(N2C(=O)CC(N(O)C3CC(=O)N(c4ccc(C)cc4)C3=O)C2=O)cc1 (centres unmarked) — higher, -9.78%
- O=C(COC(=O)c1cc([N+](=O)[O-])ccc1N1CCOCC1)c1ccccc1Cl — higher, -2.75%
- O=C(c1cc(COc2ccc(F)cc2Cl)on1)N1CCN(c2cnccn2)CC1 — lower, -46.9%
- O=C(COc1ccccc1)Nc1c2c(nn1-c1ccccc1)CS(=O)(=O)C2 — lower, -37.3%
